According to PubChem BioAssay AID1745845 (National Center for Advancing Translational Sciences (NCATS), 2022):
Values joined by “and” are separate entries in the source; they are usually repeats but may differ in a detail not shown here. Equal values may be shown once. The campaign covered roughly 360,000 compounds. About 2,600 (0.72%) were called active. The inconclusive results got no clear call from the source; some entries with a clear call stand among them for comparison. The call rests on the fitted dose curve; in most records, active means well fitted inhibition curve with a large enough effect; inconclusive means small, poorly fitted or top-dose-only effect; inactive means no such curve, though single readings can be large or run the other way. Where the call is inconclusive, the potency comes from a doubtful curve fit.
Potency means the concentration at half of the fitted maximal effect; tags describe the fitted curve by direction and shape.

Experiment: Primary qHTS for Inhibitors of ATXN expression; further: nearly all actives have a fitted effect of over 55% in size
Settings: HEK-293 ATXN2-luciferase reporter, luminescence, 24 h; series mostly up to 57 µM
In short: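 ATXN2-luciferase reporter cells (luciferase flanked by upstream and downstream ATXN2 gene portions) were treated 24 h at 37 °C with compounds at up to 57 uM. SteadyGlo luminescence gave expression; GF-AFC fluorescence gave viability.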
For `CCC(C)Nc1ncnc2c1cnn2-c1ccc(F)cc1` (stereo not given), the Potency was “inactive”. For `Clc1ccccc1Nc1nnc(-c2ccncc2)s1`, the Potency was inconclusive: 14.1 µM [inhibitor, single point]. In the case of `COc1ccc(S(=O)(=O)NCCSc2nnnn2-c2ccccc2)cc1`, the Potency was “inactive”. For `c1ccc(C[C@H]2CNCCN2CCC23CC4CC(CC(C4)C2)C3)cc1`, the Potency was inconclusive: 31.6 µM [inhibitor, single point]. With `COc1cccc2c1C(=O)C=C(C)C2=O` the Potency was inconclusive: 37.7 µM [inhibitor, single point]. With `Cn1c(N)c(C(=O)CSc2nc3ccccc3c(=O)n2Cc2ccccc2)c(=O)n(C)c1=O` the Potency was “inactive”. In the case of `O=C(COc1ccc(-n2cnnn2)cc1)Nc1cc(Cl)cc(Cl)c1`, the Potency was inconclusive: 35.5 µM [inhibitor, partial curve]. For `Cc1cccc(CCN2C(Nc3ccccc3)=NC[C@@H]2CC(C)C)c1`, the Potency was inconclusive: 7.08 µM [inhibitor, partial curve, poor fit]. In the case of `Cc1ccccc1-n1c(Cn2nc(-c3cccc(O)c3)c3c(N)ncnc32)nc2cccc(C)c2c1=O`, the Potency was inconclusive: 24.3 µM [inhibitor, partial curve, poor fit]. For `CC(C)(C)C1CCc2sc(-c3nnc(CCl)o3)cc2C1` (stereo not given), the Potency was inconclusive: 37.7 µM [inhibitor, single point]. With `COc1cc(OC)c(NS(=O)(=O)c2ccc3oc(=O)c4ncn(C)c4c3c2)cc1Cl` the Potency was inconclusive: 31.6 µM [inhibitor, single point]. For `CCC(C)SSc1ncc[nH]1` (stereo not given), the Potency was inconclusive: 43.2 µM [inhibitor, single point]. With `Cc1c(CCC(=O)NCCCn2ccnc2)c(=O)oc2cc3oc4c(c3cc12)CCCC4` the Potency was inconclusive: 23.8 µM [inhibitor, single point]. In the case of `CN1C(C(=O)Nc2ccc(OC(F)(F)F)cc2)=CC(c2cccs2)=NS1(=O)=O`, the Potency was inconclusive: 39.8 µM [inhibitor, single point]. With `COc1ccc(NC(=O)c2oc3ccccc3c2NC(=O)COc2ccc(C(C)C)cc2)c(OC)c1` the Potency was “inactive”. For `Cc1coc2c1C(=O)C(=O)c1c-2ccc2c(C)cccc12`, the Potency was inconclusive: 17.8 µM [inhibitor, single point]. For `O=[N+]([O-])c1cccc(/C=N/Nc2cc(Cl)nc(-c3ccccc3)n2)c1`, the Potency was inconclusive: 39.8 µM [inhibitor, single point]. For `N=c1c2c(-c3ccccc3)c(-c3ccccc3)n(Cc3ccco3)c2ncn1CCO`, the Potency was inconclusive: 39.8 µM [inhibitor, single point]. With `Cc1ccc(C)c(N2CCN(CCCNC(=O)Cn3cccc3C(=O)c3ccccc3)CC2)c1` the Potency was inconclusive: 37.7 µM [inhibitor, partial curve, poor fit]. In the case of `COCCNC(=S)N(CCc1c(C)[nH]c2ccc(Cl)cc12)Cc1cccs1`, the Potency was inconclusive: 25.1 µM [inhibitor, single point]. For `OC(CNCCC(c1ccccc1)c1ccccc1)COc1ccccc1` (stereo not given), the Potency was inconclusive: 13.4 µM [inhibitor, single point]. For `Cc1ccc(C(C)C)c(OCC(O)CN2CCc3ccccc3C2)c1` (stereo not given), the Potency was inconclusive: 31.6 µM [inhibitor, single point]. With `COc1ccccc1OC(C)C(=O)Nc1cccc(-c2nc3ccccc3o2)c1` (stereo not given) the Potency was inconclusive: 39.8 µM [inhibitor, single point]. For `COc1ccc(-c2cc3c(C)nc(N)nc3n(C3CCC(OCCO)CC3)c2=O)cn1` (stereo not given), the Potency was inconclusive: 0.385 µM [inhibitor, full curve]. For `Cc1ccc(NC(=O)c2cnn3c2NC(c2ccccc2)=CC3c2ccccc2)cc1` (stereo not given), the Potency was inconclusive: 39.8 µM [inhibitor, single point]. With `CCN(CC(=O)NC(C)(C)C)Cc1nc2c(Br)cc(Br)cc2c(=O)[nH]1` the Potency was active: 17.8 µM. For `COC(=O)c1ccc2nc(NC(=O)C(C)(C)C)sc2c1`, the Potency was inconclusive: 42.3 µM [inhibitor, single point]. In the case of `COc1cccc(-c2nc(NC3CCCC3)c3ccccc3n2)c1O`, the Potency was inconclusive: 39.8 µM [inhibitor, single point]. For `CN(C)c1ccc(NC2=C(Cl)C(=O)c3ccccc3C2=O)cc1`, the Potency was inconclusive: 39.8 µM [inhibitor, single point]. For `Cc1ccc(-c2csc(N3CCC[C@@H]3C(=O)NCCn3c(-c4ccncc4)nc4ccccc43)n2)cc1`, the Potency was inconclusive: 31.6 µM [inhibitor, partial curve, poor fit]. For `CCC1(CC)Cc2ccccc2-c2nc(CN(C)C)[nH]c(=O)c21`, the Potency was inconclusive: 3.16 µM [inhibitor, single point]. With `CCN(Cc1nc2cc(Cl)ccc2c(=O)[nH]1)C(=O)COc1ccccc1Cc1ccccc1` the Potency was “inactive”. In the case of `OCc1ccccc1SSc1ccccc1CO`, the Potency was inconclusive: 14.1 µM [inhibitor, partial curve, poor fit]. For `COc1cccc(-c2nn(C)c3sc(C(=O)N4CCN(c5ccccn5)CC4)cc23)c1`, the Potency was inconclusive: 39.8 µM [inhibitor, single point]. With `Cc1ccc2c(c1)N(CCCC(=O)Nc1cccc(C(F)(F)F)c1)C(=O)CO2` the Potency was inconclusive: 39.8 µM [inhibitor, single point]. With `CC(=O)c1cccc(NS(=O)(=O)c2ccc(N/C=C\C(=O)c3ccc(F)cc3)cc2)c1` the Potency was inconclusive: 22.4 µM [inhibitor, partial curve, poor fit]. For `[O-][n+]1c(/C=C/c2ccccc2)ccc2ccccc21`, the Potency was “inactive”. In the case of `Cc1ccc(-c2cc(C(=O)NCc3ccccc3Cl)c3ccccc3n2)cc1C`, the Potency was “inactive”. In the case of `O=C1OC(Nc2cc(Br)cc3cccnc23)c2ccccc21` (stereo not given), the Potency was “inactive”. With `C=CC(=O)Nc1ccc(CN2C(=O)N(c3c(Cl)c(OC)cc(OC)c3Cl)Cc3cnc(NCCCCN(CC)CC)nc32)cc1` the Potency was inconclusive: 35.5 µM [inhibitor, partial curve]. With `O=C(Nc1nc(-c2ccccn2)cs1)c1ccc([N+](=O)[O-])o1` the Potency was inconclusive: 31.6 µM [inhibitor, single point]. With `CCCCCc1cc(=O)oc2c(C(CCN3CCCCC3)c3ccc4c(c3)OCO4)c(OC)cc(OC)c12` (stereo not given) the Potency was active: 31.6 µM. With `Cn1c(CO)cnc1S(=O)(=O)Cc1ccc([N+](=O)[O-])cc1` the Potency was inconclusive: 44.7 µM [inhibitor, partial curve, poor fit]. In the case of `COC(=O)C1=C(C(=O)c2ccccc2)C(c2ccccc2)n2nnnc2N1` (stereo not given), the Potency was inconclusive: 14.1 µM [inhibitor, partial curve, poor fit]. With `N=C1/C(=C/c2coc3ccccc3c2=O)C(=O)N=C2SC(c3ccco3)=NN12` the Potency was “inactive”. In the case of `COc1ccc(C(=O)NCC(c2ccc3c(c2)OCO3)N2CCN(c3ccccc3F)CC2)cc1` (stereo not given), the Potency was inconclusive: 10 µM [inhibitor, partial curve]. With `CCOC(=O)/C=C/C(=O)Nc1ccccc1-c1ccccc1NC(=O)/C=C/C(=O)OCC` the Potency was inconclusive: 39.8 µM [inhibitor, single point]. For `CN(C)C(=O)N1CCC(C(=O)NCc2ccccc2)CC1`, the Potency was “inactive”. For `COc1cc(C(=O)Nc2ccccc2C(=O)NCc2cccnc2)cc(OC)c1OC`, the Potency was “inactive”. For `O=C(C1=C[C@@H](c2ccc(C(F)(F)F)cc2)C[C@@H](OCCCCO)O1)N1CCN(Cc2ccccc2)CC1`, the Potency was inconclusive: 31.6 µM [inhibitor, single point]. For `CC1(C(=O)NCc2cccc3ccccc23)CCN1Cc1cccc2c1OCO2` (stereo not given), the Potency was “inactive”. For `CCOc1ccc(-c2nn(-c3ccccc3)cc2C2NC(=O)NC(C)=C2C(=O)OC(C)C)cc1` (stereo not given), the Potency was inconclusive: 28.2 µM [inhibitor, single point]. In the case of `Nc1ncnc2c1c(-c1cnc3[nH]ccc3c1)nn2C1CCCC1`, the Potency was active: 19.3 µM. In the case of `CSc1nc(Nc2ccc(F)cc2)cc(-c2ccccc2)n1`, the Potency was inconclusive: 28.2 µM [inhibitor, single point]. In the case of `Cc1ccc(CN2CC(C(=O)Nc3cc(C)ccn3)CC2=O)cc1` (stereo not given), the Potency was inconclusive: 20 µM [inhibitor, single point]. For `CCOC(=O)CN(C(=O)Cn1nnc2ccccc21)C(C(=O)NCCOC)c1ccccc1C` (stereo not given), the Potency was “inactive”. With `COc1ccccc1-n1cc([C@@H]2C[C@H]3CN(c4ccccc4)C(=O)[C@]34CCCN24)cn1` the Potency was inconclusive: 5.01 µM [inhibitor, single point]. With `CCSc1nnc(NC(=O)CSc2nc3c(c(=O)n2C)SC(C)C3)s1` (stereo not given) the Potency was inconclusive: 28.2 µM [inhibitor, partial curve, poor fit]. In the case of `COc1ccc(Cn2c(C(=O)O)c(CNC3CCCC3)c3ccc(OC)cc32)cc1`, the Potency was “inactive”. For `COc1ccc([C@@]2(C(C)C)ON(c3ccccc3C(F)(F)F)C2=O)cc1`, the Potency was inconclusive: 39.8 µM [inhibitor, single point]. In the case of `C=CCn1cc(C(=O)NCCCOC)c(=O)c2cc(S(=O)(=O)N(CC)CC)ccc21`, the Potency was inconclusive: 0.398 µM [inhibitor, full curve, poor fit]. For `CSc1nc(N(CCO)CCO)c2sc3nc(-c4ccco4)c4c(c3c2n1)CCC4`, the Potency was inconclusive: 25.1 µM [inhibitor, partial curve, poor fit]. With `COc1ccc(/C=C(\NC(=O)c2ccccc2Cl)C(=O)NCCCC(=O)O)cc1` the Potency was “inactive”. In the case of `Cc1ccc2c(c1)N(C(=O)CCC(=O)NCCCN1CCC(Cc3ccccc3)CC1)CCO2`, the Potency was inconclusive: 29.9 µM [inhibitor, single point]. For `COc1ccc2cc1Oc1ccc(cc1)C[C@H]1c3cc(c(OC)cc3CCN1C)Oc1c(OC)c(OC)cc3c1[C@H](C2)N(C)CC3`, the Potency was inconclusive: 24.3 µM [inhibitor, partial curve] and inconclusive: 28.2 µM [inhibitor, single point].
